In the supplement of paper PMC10126150:
Sequences with one replicate were seen in a single cluster, so their values are uncertain.
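Further: ATP exposure 15 min at 22 °C before imaging.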

Each sequence was assayed on ATP (assay: switch fluorescence ratio, 500 uM ATP over buffer (Cy3 cluster intensity, sum of 5 cycles each) (fold (ratio)); higher = stronger signal-on switching upon ATP binding; sequences stand for … in TCGTCGGCAGCGTCAGATGTGTATAAGAGACAGTTTTTTTTTTTTTTTTTTTTTTTTT…TC). Conditions: aptamer strand: ATP DNA aptamer (quencher-CACCTGGGGGAGTATTGCGGAGGAAGG + anchor), 100 nM annealed; ATP concentration: 500 uM; one replicate.
Method in brief: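 Values give the fluorescence ratio for each switch-domain sequence, averaged from per-cluster ratios of summed target-cycle to summed buffer-cycle Cy3 intensity. The Cy3-labelled switching-strand clusters sat on a modified Illumina MiSeq flow-cell, were annealed to 100 nM quencher-labelled ATP aptamer, and were imaged in selection buffer, then after 15 min with 500 uM ATP at 22 °C. Five cycles ran with NaOH stripping and re-annealing between them, and clusters outside 100-1000 RFU were excluded.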
With AATCCAAATT the switch fluorescence ratio was 0.997. AATCCGAGTG showed a switch fluorescence ratio of 1.01. Work on AATCCGCTTC yielded a switch fluorescence ratio of 2.67. AATCCGTGGA was tested, and the switch fluorescence ratio was 0.948. With AATCGAACAT the switch fluorescence ratio was 1.03. Sequence AATCGATCA has a switch fluorescence ratio of 1.04. AATCGCAGTT was tested, and the switch fluorescence ratio was 0.988. AATCGCGTA gave a switch fluorescence ratio of 1.01. AATCGCTTAC gave a switch fluorescence ratio of 4.19. For AATCGGTCCG, the switch fluorescence ratio was 0.996. For AATCGTAAAA, the switch fluorescence ratio was 0.974. Sequence AATCGTTATG has a switch fluorescence ratio of 0.989. AATCTACGGT gave a switch fluorescence ratio of 0.989. Work on AATCTAGTC yielded a switch fluorescence ratio of 0.962. AATCTCTTTA gave a switch fluorescence ratio of 1.03. In the case of AATCTGACTC, the switch fluorescence ratio is reported as 1.27. AATCTGAGTC showed a switch fluorescence ratio of 1.01. Sequence AATGAAACCG has a switch fluorescence ratio of 1.13. AATGACCCA showed a switch fluorescence ratio of 1.04. With AATGACGCGA the switch fluorescence ratio was 1.75. In the case of AATGAGCAGG, the switch fluorescence ratio is reported as 1.03. In the case of AATGAGCTTT, the switch fluorescence ratio is reported as 0.937. AATGATAACG showed a switch fluorescence ratio of 1.04. AATGATTTAG gave a switch fluorescence ratio of 0.985. For AATGCAAGAT, the switch fluorescence ratio was 1.09. With AATGCCAGAA the switch fluorescence ratio was 0.944. AATGCCCCTG showed a switch fluorescence ratio of 1.05. AATGCCCGGG was tested, and the switch fluorescence ratio was 1.03. Work on AATGCCTAGG yielded a switch fluorescence ratio of 1.03. With AATGCGCACG the switch fluorescence ratio was 1.02. Sequence AATGCGTTAA has a switch fluorescence ratio of 1.01. Sequence AATGCTCTCT has a switch fluorescence ratio of 0.996. AATGGAAGAA showed a switch fluorescence ratio of 0.997. With AATGGATCAA the switch fluorescence ratio was 0.985. AATGGCAAGT showed a switch fluorescence ratio of 0.974. AATGGCCATC gave a switch fluorescence ratio of 0.964. Work on AATGGCTATC yielded a switch fluorescence ratio of 0.998. AATGGGACTG showed a switch fluorescence ratio of 1.26. Sequence AATGGGCTCG has a switch fluorescence ratio of 1.02. AATGGGCTCT was tested, and the switch fluorescence ratio was 0.98. AATGGGGCG was tested, and the switch fluorescence ratio was 0.985. AATGGGTACG gave a switch fluorescence ratio of 0.996. In the case of AATGGTACAC, the switch fluorescence ratio is reported as 1.05. Sequence AATGGTCGGT has a switch fluorescence ratio of 1.01. AATGGTTATG showed a switch fluorescence ratio of 1.03. In the case of AATGTAGCCG, the switch fluorescence ratio is reported as 0.962. In the case of AATGTATGAA, the switch fluorescence ratio is reported as 0.975. With AATGTCAGAC the switch fluorescence ratio was 0.925. Sequence AATGTCAGTT has a switch fluorescence ratio of 0.978. In the case of AATGTCCCTT, the switch fluorescence ratio is reported as 0.984. With AATGTGCATT the switch fluorescence ratio was 1.01. For AATGTTCATA, the switch fluorescence ratio was 0.987. In the case of AATGTTCG, the switch fluorescence ratio is reported as 0.968. Sequence AATGTTGAGG has a switch fluorescence ratio of 0.984. Work on AATGTTTAGT yielded a switch fluorescence ratio of 1.01. For AATGTTTTCC, the switch fluorescence ratio was 1.05. AATTAAAAAC gave a switch fluorescence ratio of 0.945. AATTAACTTG gave a switch fluorescence ratio of 0.987. In the case of AATTACCGGA, the switch fluorescence ratio is reported as 0.989. AATTACCTTC gave a switch fluorescence ratio of 1.49. Sequence AATTAGATAG has a switch fluorescence ratio of 0.98. Sequence AATTAGCGAT has a switch fluorescence ratio of 1.07. AATTAGTTTC gave a switch fluorescence ratio of 0.991. AATTATAAGT gave a switch fluorescence ratio of 1.01. Sequence AATTATCTTT has a switch fluorescence ratio of 1.02. Work on AATTATGAGG yielded a switch fluorescence ratio of 0.979. Sequence AATTATTACC has a switch fluorescence ratio of 1.05. Work on AATTCTGGCA yielded a switch fluorescence ratio of 0.943. AATTGAACAT was tested, and the switch fluorescence ratio was 1.02. AATTGAACCC was tested, and the switch fluorescence ratio was 1.06. AATTGAATGC was tested, and the switch fluorescence ratio was 1.01. AATTGATTG was tested, and the switch fluorescence ratio was 0.993. Work on AATTGGAA yielded a switch fluorescence ratio of 0.985. AATTGGAACA gave a switch fluorescence ratio of 1.01. AATTGGCGTC showed a switch fluorescence ratio of 1.01. In the case of AATTGGGTCC, the switch fluorescence ratio is reported as 1.03. In the case of AATTGTTCTA, the switch fluorescence ratio is reported as 0.973. AATTGTTGTA was tested, and the switch fluorescence ratio was 1.03. AATTGTTTTG showed a switch fluorescence ratio of 0.978. AATTTAACC showed a switch fluorescence ratio of 1.04. With AATTTAACTT the switch fluorescence ratio was 1.03. For AATTTAATAG, the switch fluorescence ratio was 1.02. AATTTACTCG showed a switch fluorescence ratio of 1.02. With AATTTATGAA the switch fluorescence ratio was 1.04. AATTTCAAAT showed a switch fluorescence ratio of 1. For AATTTCACCT, the switch fluorescence ratio was 1.12. AATTTCTGCT showed a switch fluorescence ratio of 0.983. With AATTTGAAGG the switch fluorescence ratio was 1.01. Sequence AATTTGGGAT has a switch fluorescence ratio of 1. With AATTTGTTAT the switch fluorescence ratio was 0.994. AATTTTCCAT showed a switch fluorescence ratio of 0.963. ACAAAACCGC gave a switch fluorescence ratio of 1.24. ACAAACGTCT was tested, and the switch fluorescence ratio was 1.01. With ACAAAGCCCG the switch fluorescence ratio was 1.14. ACAAAGTATG was tested, and the switch fluorescence ratio was 0.996. ACAAATGAAT was tested, and the switch fluorescence ratio was 1.19. With ACAAATGACG the switch fluorescence ratio was 0.992. ACAAATTAGT was tested, and the switch fluorescence ratio was 0.978. Work on ACAAATTGAA yielded a switch fluorescence ratio of 1.03. ACAACACTTG gave a switch fluorescence ratio of 1.19. ACAACCGCAA showed a switch fluorescence ratio of 1.04. For ACAACGATAG, the switch fluorescence ratio was 0.994. Sequence ACAACGCCTG has a switch fluorescence ratio of 0.971. Work on ACAACGGGAC yielded a switch fluorescence ratio of 1.28. ACAACGGGGC gave a switch fluorescence ratio of 1.04. ACAACTTACC showed a switch fluorescence ratio of 1.2. ACAAGCGGAG was tested, and the switch fluorescence ratio was 0.97. ACAAGCTGTG gave a switch fluorescence ratio of 0.945. ACAAGGATAT was tested, and the switch fluorescence ratio was 1.04. ACAAGGGTTT gave a switch fluorescence ratio of 0.982. Sequence ACAAGTAGGT has a switch fluorescence ratio of 1.02. For ACAAGTTGAG, the switch fluorescence ratio was 1.01. Sequence ACAAGTTTTT has a switch fluorescence ratio of 1.08. ACAATAGCGT was tested, and the switch fluorescence ratio was 1.07. ACAATCGGGA was tested, and the switch fluorescence ratio was 1.01. ACAATCTCAT was tested, and the switch fluorescence ratio was 1.02. Work on ACAATGTGGC yielded a switch fluorescence ratio of 1.04. Sequence ACAATGTTT has a switch fluorescence ratio of 1.05. With ACACAAGGCC the switch fluorescence ratio was 0.997. In the case of ACACAGGGAG, the switch fluorescence ratio is reported as 1.04. In the case of ACACAGTCGA, the switch fluorescence ratio is reported as 0.992. In the case of ACACATGCTT, the switch fluorescence ratio is reported as 1.01. ACACCAGGT was tested, and the switch fluorescence ratio was 4.57. With ACACCCGGTG the switch fluorescence ratio was 0.982. Sequence ACACCGATTT has a switch fluorescence ratio of 1.06. Work on ACACCGTAAG yielded a switch fluorescence ratio of 1.02. Sequence ACACCTAGCA has a switch fluorescence ratio of 1.07. Sequence ACACGACGAT has a switch fluorescence ratio of 1.17. Sequence ACACGAGAGG has a switch fluorescence ratio of 1.08. ACACGCTATA gave a switch fluorescence ratio of 1.54. ACACGGGCTG gave a switch fluorescence ratio of 1.02. ACACGGTATT was tested, and the switch fluorescence ratio was 1.15. In the case of ACACTCTCTA, the switch fluorescence ratio is reported as 1.03. ACACTCTTTT gave a switch fluorescence ratio of 1.01. Work on ACACTGCACC yielded a switch fluorescence ratio of 1.43. Work on ACACTGGCAG yielded a switch fluorescence ratio of 0.944. ACACTTAGGA was tested, and the switch fluorescence ratio was 1.03. ACACTTTGGA showed a switch fluorescence ratio of 0.997. ACACTTTTTA showed a switch fluorescence ratio of 1.04. ACAGAAGTTT gave a switch fluorescence ratio of 1.01. ACAGAGGACT showed a switch fluorescence ratio of 0.967. Work on ACAGAGTCGG yielded a switch fluorescence ratio of 0.984. ACAGATATAC showed a switch fluorescence ratio of 1.27. Sequence ACAGCACCTT has a switch fluorescence ratio of 1.3. ACAGCACGGA was tested, and the switch fluorescence ratio was 1.23. ACAGCAGGG gave a switch fluorescence ratio of 1.01. ACAGCCATTT showed a switch fluorescence ratio of 1.05. With ACAGCCGCG the switch fluorescence ratio was 1.18. ACAGCGGTTC was tested, and the switch fluorescence ratio was 1.05. For ACAGGAATGG, the switch fluorescence ratio was 1.03. For ACAGGACATG, the switch fluorescence ratio was 1.04. ACAGGACGAG showed a switch fluorescence ratio of 1.04. ACAGGAGTGG showed a switch fluorescence ratio of 0.978. With ACAGGAGTTG the switch fluorescence ratio was 0.996. ACAGGCCGGT gave a switch fluorescence ratio of 1.04. In the case of ACAGGCTGAT, the switch fluorescence ratio is reported as 1.06. ACAGGGACCC showed a switch fluorescence ratio of 1. ACAGGGGCGT showed a switch fluorescence ratio of 1.05. Work on ACAGGGGGCA yielded a switch fluorescence ratio of 0.978. ACAGGGGTG gave a switch fluorescence ratio of 1.18. ACAGGGGTGA gave a switch fluorescence ratio of 1.08. For ACAGGTATGT, the switch fluorescence ratio was 1.01. In the case of ACAGGTGTGG, the switch fluorescence ratio is reported as 1.14. For ACAGTGATTT, the switch fluorescence ratio was 1.01. Sequence ACAGTGCAGG has a switch fluorescence ratio of 1. ACAGTGGCGC gave a switch fluorescence ratio of 1.08. Work on ACAGTGGTAG yielded a switch fluorescence ratio of 0.984. ACAGTTCGGA was tested, and the switch fluorescence ratio was 0.941. For ACATAAAGCT, the switch fluorescence ratio was 1.02. Sequence ACATAACATT has a switch fluorescence ratio of 1.15. ACATAAGATT was tested, and the switch fluorescence ratio was 1.04. ACATAATGGT gave a switch fluorescence ratio of 1.01. Sequence ACATACGGT has a switch fluorescence ratio of 1.29. ACATACTTGG gave a switch fluorescence ratio of 1.23. ACATAGAATG showed a switch fluorescence ratio of 0.982. ACATAGGATA was tested, and the switch fluorescence ratio was 1.04. With ACATATAAGA the switch fluorescence ratio was 1.08. ACATATATAT gave a switch fluorescence ratio of 1.05. ACATATCTTA was tested, and the switch fluorescence ratio was 1.02. With ACATCATGAC the switch fluorescence ratio was 1.13. ACATCCTCGC gave a switch fluorescence ratio of 1.72. ACATCGAACG was tested, and the switch fluorescence ratio was 1.05. Sequence ACATCGGATT has a switch fluorescence ratio of 0.993. ACATCTCATC showed a switch fluorescence ratio of 1. ACATCTCCCA was tested, and the switch fluorescence ratio was 1.05. Work on ACATCTGGGG yielded a switch fluorescence ratio of 1.02. Work on ACATGAATAG yielded a switch fluorescence ratio of 1.02. Work on ACATGACTCA yielded a switch fluorescence ratio of 1.08. Work on ACATGATCTT yielded a switch fluorescence ratio of 0.985. ACATGATTCA gave a switch fluorescence ratio of 1. ACATGCCAT was tested, and the switch fluorescence ratio was 0.972. For ACATGCGTAT, the switch fluorescence ratio was 1.01. ACATGGCTGG gave a switch fluorescence ratio of 1.02. For ACATTACCGG, the switch fluorescence ratio was 1.24. ACATTAGCCC was tested, and the switch fluorescence ratio was 1.03. Work on ACATTATT yielded a switch fluorescence ratio of 1.03. ACATTCCTAT was tested, and the switch fluorescence ratio was 1.06. ACATTGCCTG showed a switch fluorescence ratio of 0.996. Sequence ACATTGTGTT has a switch fluorescence ratio of 1.01. For ACATTTAATA, the switch fluorescence ratio was 1.01. ACATTTGGG showed a switch fluorescence ratio of 1.
